GI50 and TGI data for 60 molecules are collected here from PubChem BioAssay (NCI).

“And” between values parts separate entries of the source, which are not always exact repeats. Equal entries are not always repeated.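 Method: 48-hour compound exposure of cells in 96-well plates, five concentrations, linear interpolation of endpoints. GI50 = concentration required for 50% inhibition of growth. TGI: total growth inhibition.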 Square brackets hold non-standard residues; d marks the D form. Peptide text beside a SMILES is read from it. * marks the point of attachment. Bn2Val = CC(C)[C@@H](C(=O)*)N(Cc1ccccc1)Cc1ccccc1; NH(4-Cl-benzyl) = Clc1ccc(CN*)cc1; NMeV = CN[C@H](C(=O)O)C(C)C; dNMeA = CN[C@H](C)C(=O)O

In the test the test system is NCI-H322M lung. Put plainly: growth of human tumour cells (NCI), 48 h.

Turning to `CSCCCNC(=O)c1ccc2c(c1)/C(=C/c1[nH]c(C)cc1C)C(=O)N2`, the GI50 was 0.434 µM and the TGI was above 100 µM. In the case of `CC(C)/C(Cl)=N\OC(NC(=O)P(=O)(c1ccccc1)c1ccccc1)(C(F)(F)F)C(F)(F)F`, the TGI was 38.7 µM. `NNC(=O)C1(NC(=O)c2ccccc2)C(c2ccccc2)C(c2ccccc2)=NN1c1ccccc1` (stereo not drawn) showed a TGI above 100 µM. Consider `Cc1nc(Nc2ccccn2)sc1C(=O)/C=C/c1ccc(Cl)cc1`, for which the GI50 was 0.633 µM and the TGI was above 100 µM. `COc1cc2c(cc1O)CC1c3c(cc(O)c(OC)c3-2)CCN1C` (stereo not drawn) displayed a TGI above 100 µM. Regarding `N/N=C1\C(=O)N(c2ccc(Cl)cc2Cl)C(=O)C(=O)C1c1nc2ccccc2o1` (stereo not drawn), the TGI was above 100 µM. For `Cc1c(-c2ccnc(N)n2)c2c(n1Cc1ccccc1)C(=O)c1ccccc1C2=O`, the GI50 was 5.27 µM and the TGI amounted to 39.1 µM. The molecule `CN1C(=O)C(O)C[C@@H]1c1ccccc1` (stereo partly drawn) gave a TGI above 100 µM. `O=C(Nn1c(-c2ccccc2)nc2ccccc2c1=O)c1ccccc1O` displayed a TGI above 100 µM. Turning to `S=c1nc(N/N=C/c2ccco2)c2cn[nH]c2[nH]1`, the GI50 is 10.8 µM and the TGI was above 100 µM. Consider `C[Si](C)(C)/C=C\CCO`, for which the TGI is above 100 µM. Still for that read-out and setting: in the case of `CC(C)(C)CC(C)(C)c1cc(O)c(O)c(CN2CCCCC2)c1` it was 30.4 µM. For the molecule `COc1cc2c(cc1OC)C(=O)/C(=C/c1cc(-c3ccc4c(c3)OCO4)n[nH]1)C2`, the GI50 was 1.54 µM and the TGI turned out to be 3.01 µM. For `O=P1(S)OC[C@H]2O[C@@H]3[C@H](F)[C@@H]2OP(O)(=S)OC[C@H]2O[C@H]([C@H](F)[C@@H]2O1)n1cnc2c(ncnc21)NC/C=C/CNc1ncnc2c1ncn23` (stereo partly drawn) the same measures were above 100 µM and above 100 µM. `COC(=O)C1=C(C(=O)OC)C2(C)C=CC1O2` (stereo not drawn) showed a TGI above 100 µM. For `NNC(=O)C(=O)N/N=C1\CCC(=O)CC1C(=O)CCC(=O)Nc1ccc(Cl)cc1` (stereo not drawn), the TGI is above 100 µM. As to `O=c1/c(=C\c2ccc(F)cc2)sc2n1C(c1ccc(F)cc1)C1=C(N=2)c2ccc3ccccc3c2OCC1` (stereo not drawn), the GI50 is above 100 µM and the TGI is above 100 µM. Take `N.N.N.N.N.O=[N+]([O-])[O-].[Co+3].[O-][Cl+3]([O-])([O-])[O-]`: the GI50 was above 100 µM and the TGI was above 100 µM. Turning to `Cc1ccc(S(=O)(=O)Nn2c(O)c(C#N)c(-c3ccc(Cl)cc3)c(C#N)c2=O)cc1`, the TGI was above 100 µM. With `O=c1cc(N/N=C/c2ccc(F)cc2)c2cc(Cl)ccc2[nH]1`, the GI50 was 22.2 µM and the TGI is above 100 µM. On to `CC(C)(C)[Si](C)(C)OCc1cccc(OCCOc2cccc(CO[Si](C)(C)C(C)(C)C)c2[N+](=O)[O-])c1[N+](=O)[O-]`, for which the TGI is above 100 µM. In turn, `CN(Cc1cnc2nc(N)nc(N)c2n1)c1ccc(C(=O)NC(CO)CCCO)cc1` (stereo not drawn) gave a TGI above 100 µM. As for `Cc1cc2c([nH]c3ccccc32)c(O)c1-c1c(C)cc2c([nH]c3ccccc32)c1O`, the TGI amounted to 29.9 µM. `CN(C)Cc1cc(C(=O)/C=C/c2ccccc2)cc(CN(C)C)c1O` showed a TGI above 100 µM. In turn, `CCOc1c(N=Nc2ccccc2Cl)c(-c2ccccc2)nn1C(=S)S` returned a TGI above 100 µM. In the case of `CCN(CC)C(=S)SS(=O)(=O)c1cccc(N)c1`, the TGI was above 100 µM. The molecule `COC(=O)C1C(=O)N(C)C(=O)N2CCCC12` (stereo not drawn) returned a TGI above 100 µM. As to `O=C(c1cccs1)N1CCN(C(=O)c2cccs2)C1=S`, the TGI stood at 28.6 µM. Regarding `Cc1c2cc(Cl)c3ccccc3c2c[n+]2ccccc12`, the GI50 is 2.62 µM and the TGI amounted to 32.8 µM. For `c1ccc(-c2nc(N3CCOCC3)c3c4c(sc3n2)CCCCCC4)nc1` the same measures were 5.53 µM and 20.1 µM. For `CC(C)[C@H](NC(=O)[C@H](C(C)C)N(Cc1ccccc1)Cc1ccccc1)C(=O)N(C)[C@H](C(=O)N1CCC[C@H]1C(=O)N(C)[C@H](C)C(=O)NCc1ccc(Cl)cc1)C(C)C` (Bn2Val-V[NMeV]P[dNMeA]-{NH(4-Cl-benzyl)}), the TGI is above 100 µM. As for `CN(C)CCSS(=O)(=O)O`, the TGI was above 100 µM. In the case of `C1CC[N-]CC1.CC(=N\O)/C(C)=N/O.CC(=N\O)/C(C)=N/O.OC1[CH-]CCCC1.[Co+2]`, the GI50 was above 100 µM and the TGI was above 100 µM. For `c1ccc2c(-c3nc(-c4c[nH]c5ccncc45)cs3)c[nH]c2c1`, the GI50 is 2.05 µM and the TGI was found to be 5.38 µM. In turn, `COc1ccc(C(SC2C(O)C(CO)OC2n2ccc(=O)[nH]c2=O)(c2ccccc2)c2ccc(OC)cc2)cc1` (stereo not drawn) gave a TGI of 40.1 µM. Consider `COc1cc2c(cc1OCCCCCCN1CCN(CC(=O)Nc3ccc(Cl)cc3C(=O)c3ccccc3Cl)CC1)N=CC1CCCN1C2=O` (stereo not drawn), for which the GI50 was 0.514 µM and the TGI came out at 1.16 µM.

Regarding `CCOC(=O)N1CCc2cc(OC)c(OC)cc2/C1=C\c1ccc(OC)c(OC)c1`, the TGI is above 100 µM. On to `COc1ccc(C(=O)NNc2nc(Cl)nc(N3CCN(C(c4ccccc4)c4ccccc4)CC3)n2)cc1`, for which the GI50 is 1.74 µM and the TGI was 4.43 µM. `C=CCOn1c(C=C)nc2ccc(C)cc21` displayed a TGI of 47.2 µM.

Molecule `Nc1ccc(S(=O)(=O)Nc2nc3ccccc3nc2N2CCCCCC2)cc1` returned a TGI above 100 µM. Same read-out and setting: in the case of `COc1ccc(C(=O)C(CC2C(=O)NC(=O)NC2=O)c2ccc(OC)cc2)cc1` (stereo not drawn) it was above 100 µM.

`Cc1c(NC(=S)NC(=O)c2ccc([N+](=O)[O-])cc2)c(=O)n(-c2ccccc2)n1C` yielded a TGI above 100 µM. The molecule `O=S(=O)(NCn1ccc2ccccc21)c1ccccc1` came in with a TGI above 100 µM. Regarding `O=c1[nH]c2nc(NC3CCOCC3)ncc2cc1Oc1ccc(F)cc1F`, the GI50 is above 25 µM and the TGI is above 25 µM. The molecule `CC1=NN(C(=O)c2ccc(Cl)cc2)C(=O)/C1=C/c1ccccc1O` came in with a TGI above 100 µM. In the case of `CC(=O)[O-].[Mn+3].[O-]c1ccccc1C=NCCNCCN=Cc1ccccc1[O-]`, the GI50 is above 100 µM and the TGI was above 100 µM. In the case of `c1ccc(/C(=N/Nc2ccncn2)c2ccccn2)cc1`, the TGI was above 100 µM. On the same count and under the same terms, in the case of `CC1=C2C(=CO[C@H](C)[C@H]2C)C(=O)C(C(=O)O)=C1O` it was 63.8 µM and 66.8 µM.

Regarding `CCOC(=O)c1cc2c([N+](=O)[O-])c(N)ccc2s1`, the TGI is above 100 µM. In the case of `CCOC(=O)c1cc(C)nc2c1c(=O)n(-c1ccccc1)c(=O)n2CCCCN1CCN(c2ccccc2)CC1`, the TGI is above 100 µM.

For the molecule `C/C(=N\NC(=S)N(C)C)c1cccnn1`, the TGI was above 100 µM.

Molecule `O=C(N/N=C/C=C/c1ccccc1)c1ccccc1Nc1ccccc1C(=O)N/N=C/C=C/c1ccccc1` displayed a TGI above 100 µM.

As to `c1ccc2c(c1)oc1ccc3nsnc3c12`, the TGI is above 100 µM. As to `COc1cc(C2c3cc4c(cc3C3OC[C@@H]2C3CO)OCO4)cc(OC)c1OC` (stereo partly drawn), the TGI was above 100 µM. The molecule `C1CC2CN(CCCN3CCOCC3)C(C1)O2` (stereo not drawn) displayed a TGI above 100 µM. `Cc1c2c(c(C)c3c4c(oc13)CCCC4)C=NCC2` registered a TGI of 28 µM. As to `Cc1ccccc1N=C(N)Nc1ccccc1C`, the TGI was above 100 µM. Regarding `C#CCn1c(=O)c(C)cn(/C(=C\C(=O)OCC)C(=O)OCC)c1=O`, the TGI is 43.8 µM. In the case of `COC(=O)COc1ccc(/C=C2/N=C(c3ccccc3)N(c3c(C)n(C)n(-c4ccccc4)c3=O)C2=O)cc1`, the GI50 was 24.8 µM and the TGI is 61.7 µM.

In turn, `COc1ccc(Nc2ccc3ccccc3c2-c2c(O)ccc3ccccc23)cc1` displayed a TGI of 32.1 µM.
